Experimental data from US5244883A, “Nonapeptide bombesin antagonists” (The Administrators of the Tulane Educational Fund, priority 1990, dated 1993).
Like-named read-outs stand apart in the source and are kept apart here. For some of these results: Not every detail of the peptide structures is certain; ends, links or a residue may be inferred. For some of these results: At least one structure is not confirmed: it was looked up by name or label, or the drawing left a doubt.

Key:
[1] = biological target: T1, GRP receptors on Swiss 3T3 cells (Mus musculus, UniProt P21729); conditions: data from Dayton et al., (1988); read-out: IC50, inhibition of binding of 125I-GRP; cited from earlier work
T1 construct: conducted in 24-well tissue culture plates (GIBCO) using Swiss 3T3 cells; endogenous in cells; host or cells: Murine Swiss 3T3 fibroblasts (intact confluent, quiescent cells)

[2] = biological target: T1, GRP receptors on Swiss 3T3 cells; assay: Receptor binding assay: displacement of 125I-GRP(14-27) on Swiss 3T3 cells; design: species or system Murine; conditions: for Ka: association constant, 0.2 nM 125I-GRP(14-27), Swiss 3T3 cells, 37° C. 30 min, N.D.=NO DISPLACEMENT
Experimental: (A) Receptor Binding Assay
Binding of ^125 I-GRP(14-27) and displacement by bombesin antagonists were conducted in 24-well tissue culture plates (GIBCO) using Swiss 3T3 cells. Murine Swiss 3T3 fibroblasts were maintained by weekly passage in DMEM containing 10% FCBS and antimycotics. Cultures were incubated in 5% CO2 in air at 37° C. The wells were seeded with 10^5 cells/well (viability >95%), grown to confluence and quiescency. The binding procedure was conducted 7 days after seeding. The cells were washed 2 times with 0.5 ml of binding buffer (Dulbecco's modified Eagle's medium containing […] (pH 7.4), 0.2% BSA and 100 mcg/ml bacitracin). The cells were then incubated with 0.2 nM ^125 I-GRP (14-27) in the presence or absence of different concentrations of antagonists (6×10^-11 -6×10^-6 M, total volume 0.4 ml).
According to Zachary and Rozengurt (1985) and Layton et al., (1988), binding of ^125 I-GRP at 37° C. reached a maximum value at 30 min and decreased afterwards; so, the cells were incubated at 37° C. for 30 min. After that, the cells were washed 2 times with ice-cold (4° C.) binding buffer and 2 times with the ice-cold phosphate-buffered saline (PBS,mM): NaCl 138, KCl 2.8, Na2 HPO4 8, KH2 PO4 1.45, CaCl2 0.91, MgCl2 0.49. Washed cultures were extracted in 0.5 ml of 0.5M NaOH and transferred to tubes for counting. The wells were washed once with 0.5 ml distilled water (sterile), and the washing were added to the appropriate tubes. Then the radio-activity of the samples was counted in an automatic gamma counter (Micromedic System, Inc., Huntsville, Ala.).
The Ligand - PC computerized curve fitting program of Munson and Rodbard was used to determine the types of receptor binding, dissociation constant (Kd), association constant (Ka), the maximal binding capacity of receptors (Bmax) and half-maximal inhibition (IC50).
IC50 values represent concentrations of antagonists causing half-maximal inhibition of 0.2 nM GRP(14-27) stimulated growth. Dissociation constant and maximal binding capacity of ^125 I-GRP (14-27) in our experiments were 1.32 nm and 0.769 pm/mg protein, respectively, which were similar to those reported for ^125 I-GRP and ^125 I-Tyr^4 -bombesin. Binding characteristics of GRP receptors on 3T3 cells in these experiments agree well with values obtained for bombesin binding to pancreatic acinar (Jensen et al., 1978) and pituitary cells (Westendorf and Schonbrunn, 1983).
IC50 is the concentration of unlabelled ligand that displaced half the specific radioligand binding. It is calculated according to the equation of Cheng and Prussoff (1973): IC50 =Kc (1+L/Kh), where Kc and Kh are the dissociation constants of unlabelled (cold) and labelled (hot) ligand respectively, and L is the concentration of radioligand used.

serum gastrin = assay: Serum gastrin inhibition in vivo after GRP stimulation; conditions: rat, antagonist bolus 30 μg/100 g BW 10 min before GRP 3 μg/100 g BW, after 8 min; control 16.7, GRP alone 105
Experimental: Bombesin analogs Peptides (5), (10) and (2) were tested in vivo on serum gastrin inhibition after GRP stimulation.

[3] = tested on: pancreatic secretion induced by GRP; assay: Effect on pancreatic secretion in vivo, conscious cats with gastric and pancreatic fistulae; conditions: i.v. infusion, 10 nmol/kg-h
3T3 CELLS = type: cell-based, Murine; conditions: basal 207000, GRP alone 348000
Experimental: (C) Inhibition of ^3 H-Thymidine incorporation by 3T3cells. SCLC cells were used 2 to 4 days after passage. Single cell suspensions were prepared by washing the cells (twice with PBS then pipetting them in PBS containing 0.2 g/liter glucose, 0.2 g/liter EDTA, and 14 mM lignocaine hydrochloride at 37° C. until the suspension appeared to be uniform (2-4 min). The cells were washed three times and resuspended in HITES without FCSB. Cultures were set up at 1.34×10^5 cells plated on day 0, all peptides added at same time in 1 ml. of RPMI-1640 medium plus HITES and 0.125% albumin. 48 hours later, 1 uc. of tritiated thymidine was added to each well and incubation continued for an additional 24 hours. Cells then were washed and deposited on glass filter paper and washed with ice cold 5% trichloro-acetic acid. Filter paper placed in vials containing scintillation fluid and counted for 1 minute. | 348,000 - 207,000 = 141,000 was taken as the stimulation

[4] = peptide 500 ng/ml + GRP 3 ng/ml
[5] = peptide 1000 ng/ml + GRP 3 ng/ml

T1 sequence (P21729 whole entry): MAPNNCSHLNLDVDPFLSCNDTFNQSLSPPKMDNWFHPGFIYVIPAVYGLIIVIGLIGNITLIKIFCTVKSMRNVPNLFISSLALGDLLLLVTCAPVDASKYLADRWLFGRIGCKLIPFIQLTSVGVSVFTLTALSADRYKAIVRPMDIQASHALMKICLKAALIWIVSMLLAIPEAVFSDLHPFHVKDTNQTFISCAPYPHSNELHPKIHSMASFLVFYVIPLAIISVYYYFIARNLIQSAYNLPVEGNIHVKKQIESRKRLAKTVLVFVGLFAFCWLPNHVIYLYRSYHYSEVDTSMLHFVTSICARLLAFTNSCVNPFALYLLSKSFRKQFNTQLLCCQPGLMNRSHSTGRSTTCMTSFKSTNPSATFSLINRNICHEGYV

SMILES	IC50 [1] [nM]	IC50 ([2]; calculated by Cheng and Prussoff equation IC50=Kc(1+L/Kh), 0.2 nM radioligand, read-out: IC50) [nM]	IC50 ([2]; unit inferred, read-out: IC50, inhibition of binding of 125I-GRP(14-27)) [nM]	serum gastrin level (serum gastrin) [pg/mL]	Ka [2] [nM⁻¹]	effect on pancreatic secretion induced by GRP [3]	DPM ± S.E. (3T3 CELLS; peptide 50 ng/ml + GRP 3 ng/ml) [DPM]	DPM ± S.E. (3T3 CELLS; [4]) [DPM]	DPM ± S.E. (3T3 CELLS; [5]) [DPM]
CSCC[C@H](NC(=O)[C@H](CC(C)C)NC(=O)[C@H](Cc1c[nH]cn1)NC(=O)CNC(=O)[C@@H](NC(=O)[C@H](C)NC(=O)[C@H](Cc1c[nH]c2ccccc12)NC(=O)[C@H](Cc1c[nH]cn1)NC(=O)[C@H](CC(N)=O)NC(=O)CNC(=O)[C@H](CCCNC(=N)N)NC(=O)[C@@H]1CCCN1C(=O)[C@H](Cc1ccc(O)cc1)NC(=O)[C@@H](N)CCSC)C(C)C)C(N)=O [GRP(14-27), reference compound]	2.2	1.52 ± 0.7	2.32						
CC(C)C[C@@H](CN[C@@H](CC(C)C)C(N)=O)NC(=O)[C@H](Cc1c[nH]cn1)NC(=O)CNC(=O)[C@@H](NC(=O)[C@H](C)NC(=O)[C@H](Cc1c[nH]c2ccccc12)NC(=O)[C@H](CCC(N)=O)NC(=O)[C@H](N)Cc1c[nH]c2ccccc12)C(C)C [Peptide 2, D--Trp--Gln--Trp--Ala--Val--Gly--His--Leu-psi-Leu--NH2]				36.8	0.095				
CC(C)C[C@@H](CN[C@@H](CC(C)C)C(N)=O)NC(=O)[C@H](Cc1c[nH]cn1)NC(=O)CNC(=O)[C@@H](NC(=O)[C@H](C)NC(=O)[C@H](Cc1c[nH]c2ccccc12)NC(=O)[C@H](CCC(N)=O)NC(=O)[C@H]1Cc2c([nH]c3ccccc23)CN1)C(C)C [Peptide 5, D--Tpi--Gln--Trp--Ala--Val--Gly--His--Leu-psi-Leu--NH2]				39.2	0.129	completely abolished	283000 ± 5400	280000 ± 21900	199000 ± 7100
CC(C)C[C@@H](CN[C@@H](Cc1ccccc1)C(N)=O)NC(=O)[C@H](Cc1c[nH]cn1)NC(=O)CNC(=O)[C@@H](NC(=O)[C@H](C)NC(=O)[C@H](Cc1c[nH]c2ccccc12)NC(=O)[C@H](CCC(N)=O)NC(=O)[C@H](N)Cc1c[nH]c2ccccc12)C(C)C [Peptide 10, D--Trp--Gln--Trp--Ala--Val--Gly--His--Leu-psi-Phe--NH2]				24.2	1		261000 ± 19500	242000 ± 8300	255000 ± 26200
